From PubChem BioAssay AID686979 (National Center for Advancing Translational Sciences (NCATS), 2013)
The whole screen tested about 420,000 compounds, of which about 50,000 (12%) were called active. The shares of active, inactive and inconclusive entries below differ from those in the screen. Calls follow the shape of the dose curve; as a rule, active = well fitted inhibition curve with a large enough effect; inconclusive = small, poorly fitted or top-dose-only effect; inactive = flat fitted curve, though single readings scatter. Potencies of inconclusive entries are left out as doubtful fits.

assay: qHTS for Inhibitors of human tyrosyl-DNA phosphodiesterase 1 (TDP1): qHTS in cells in presence of CPT; details: chicken DT40 Tdp1-/-;hTDP1 cells + 20 nM CPT, ATP luminescence, 48 h; activity change, negative = growth inhibition: at 46.2 µM (top of the series) unless noted; also: nearly all actives have a fitted effect of over 55% in size
Method in brief: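 Chicken DT40 Tdp1-/- cells complemented with human TDP1, 400 cells/well, exposed to compounds plus 20 nM camptothecin for at least 48 h at 37 C; viability read as ATP content by CellTiter-Glo luminescence.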
% is scaled to controls: 0 for no effect and ±100 for the full control effect; potency is read from the fitted curve at half-maximal effect; tags tell the direction and shape of the fitted curve.

| SMILES | Potency | activity change, negative = growth inhibition |
| --- | --- | --- |
| COc1ccc(CCN2C(=O)c3[nH]nc(-c4ccccc4O)c3C2c2ccc(C)cc2)cc1OC (centres undefined) | inconclusive [inhibitor, partial curve] | – |
| Cc1cccc(C)c1N(CC(=O)Nc1cc(Cl)ccc1Oc1ccccc1)S(C)(=O)=O | inconclusive [inhibitor, single point] | – |
| COc1ccc2c(COC(=O)c3ccc(C)c(S(=O)(=O)N4CCOCC4)c3)cc(=O)oc2c1 | inconclusive [inhibitor, single point] | – |
| COc1c(C)cc(Br)cc1C(=O)Nc1ccccc1N1CCN(C(=O)c2ccccc2)CC1 | inconclusive [inhibitor, single point] | – |
| COc1cc(NC(=O)CN2C(=O)C(c3ccc(C)cc3)=NC23CCCCCC3)cc(OC)c1 | inconclusive [inhibitor, single point] | – |
| Cc1[nH]c(-c2ccc(F)cc2)cc1C(=O)N1CCN(c2ccccc2F)CC1 | inconclusive [inhibitor, single point] | – |
| CC1(C)N=C(c2ccc(F)cc2)C(=O)N1CC(=O)Nc1ccccc1Cl | inconclusive [inhibitor, single point] | – |
| NC(=O)c1ccsc1NC(=O)Cc1ccc([N+](=O)[O-])cc1 | inactive | – |
| Cc1c(Br)c(C(=O)NNC(=O)c2ccc(C(C)(C)C)cc2)nn1C | – | inconclusive: -32.3% [inhibitor] |
| CC(C)c1ccc(N(CC(=O)NCCSCc2ccco2)S(C)(=O)=O)cc1 | inactive | – |
| CCCC(=O)Nc1nc2c(s1)CC(C(C)(C)C)CC2 (centres undefined) | active: 18.4 µM | – |
| CCOc1ccccc1NC(=O)CSc1nc2c(c(=O)n1C)SC(C)C2 (centres undefined) | inconclusive [inhibitor, partial curve] | – |
| Cc1nn(-c2ccccc2)c(C)c1/C=N/NC(=O)c1cc(O)cc(O)c1 | inactive | – |
| COc1ccc(-n2nc3c(c2NC(=O)C(=O)NCc2ccccc2)CSC3)cc1 | inconclusive [inhibitor, single point] | – |
| CCOC(=O)c1[nH]c2c(c1C)C(=O)CC(c1ccc(OCC)c(OC)c1)C2 (centres undefined) | inactive | – |
| CCOC1=C2CN(S(=O)(=O)c3ccc(C)cc3)C(c3ccc(CC)cc3)CC2N(S(=O)(=O)c2ccc(C)cc2)C(c2ccc(CC)cc2)C1 (centres undefined) | active: 3.66 µM | – |
| CCN(Cc1ccc(C#CCCO)cc1)CC1CCCN(CCc2cccc(F)c2)C1 (centres undefined) | inconclusive [inhibitor, single point] | – |
| CCC(=O)N1CCc2cc(S(=O)(=O)CCC(=O)Nc3ccc(C)cn3)ccc21 | inactive | – |
| Cc1ccc(CN2C(=O)CC(c3ccc(Cl)cc3)c3c(C)nn(-c4nc(C)cc(C)n4)c32)cc1 (centres undefined) | inconclusive [inhibitor, single point] | – |
| Cc1ccc(Cc2cnc(N3C(=N)SC(c4ccccc4)C3=O)s2)cc1 (centres undefined) | active: 16.4 µM | – |
| COc1ccc(C=C2SC(=S)NC2=O)c(OC)c1OC | inconclusive [inhibitor, single point] | – |
| Cc1ccc(Cn2c3ccccc3c3cnn(CC(=O)N4CCCCCC4)c(=O)c32)cc1 | inconclusive [inhibitor, single point] | – |
| CN(C)N1C(N)=C(C#N)C(c2ccc3c(c2)OCO3)C2=C1CC(C)(C)CC2=O (centres undefined) | inactive | – |

| SMILES | Potency | activity change, negative = growth inhibition |
| --- | --- | --- |
| CCN(Cc1ccccc1)C(=O)c1c(-c2ccccc2Cl)noc1C | – | inconclusive: -35.1% [inhibitor] |
| Cc1ccccc1-c1cnc2c(c1)C(=O)N([C@@H](C)CO)C[C@@H](C)[C@H](CN(C)Cc1ccccc1F)O2 | inconclusive [inhibitor, single point] | – |
| COc1ccc2sc(-c3ccc(S(C)(=O)=O)cc3)c(-c3ccc(C(N)=O)cc3)c2c1 | inconclusive [inhibitor, full curve, poor fit] | – |
| CC(C)C#Cc1cnc2c(c1)C(=O)N([C@H](C)CO)C[C@@H](C)[C@H](CN(C)C(=O)Nc1ccccc1F)O2 | inconclusive [inhibitor, single point] | – |
| CCCCNC(=O)c1nc(C2CCN(S(=O)(=O)c3c(OC)cccc3OC)CC2)oc1-c1ccccc1 | active: 11.6 µM | – |
| Cc1ccccc1-c1ccc2ncnc(NCCN3CCOCC3)c2c1 | active: 5.8 µM | – |
| CC(NC(=O)Cc1c(F)cccc1Cl)C1CCCO1 (centres undefined) | inactive | – |
| COC(=O)c1ccc(NC(=O)CSc2nccn2Cc2ccc(Cl)cc2)cc1 | inconclusive [inhibitor, single point] | – |
| CC(NC(=O)C12CC3CC(C)(CC(C)(C3)C1)C2)c1ccncc1 (centres undefined) | inactive | – |
| COCCN1Cc2cccc(C(=O)N3CCN(c4cc(C)ccc4C)CC3)c2C1=O | inconclusive [inhibitor, single point] | – |
| FC(F)(F)c1ccnc(N2CCN(Cc3cnc(-c4ccccc4)[nH]3)CC2)c1 | inconclusive [inhibitor, single point] | – |
| O=C(/C=C/c1ccc(F)cc1)Nc1ccc(S(=O)(=O)Nc2ncccn2)cc1 | inconclusive [inhibitor, single point] | – |
| O=C(NC1CCCCC1)C(c1ccccc1)N(C(=O)c1csnn1)C1CCCC1 (centres undefined) | inactive | – |
| CCC1(c2ccccc2)CN(C)C1=O (centres undefined) | inactive | – |
| COc1cccc(CNC(=O)Cn2cc3c(n2)CCCCC3)c1 | inconclusive [inhibitor, single point] | – |
| O=C1CN(c2nc(-c3ccccc3)c3cc(Cl)ccc3n2)c2ccccc2N1 | active: 16.4 µM | – |
| Cc1ccc(S(=O)(=O)n2nc(C)c(Br)c2C)c(C)c1C | inconclusive [inhibitor, single point] | – |
| COc1ccc(N(C(C)C(=O)Nc2ccc(S(=O)(=O)N3CCCCC3)cc2)S(C)(=O)=O)cc1 (centres undefined) | inconclusive [inhibitor, single point] | – |
| COC(=O)c1cc2oc(C)cc2n1CC(=O)Nc1ccc(OC)c(OC)c1 | inactive | – |
| Cc1c(NC(=O)C(C)OC(=O)c2c3c(nc4ccccc24)CCC(C)C3)c(=O)n(-c2ccccc2)n1C (centres undefined) | active: 13 µM | – |
| O=C(c1ccc(F)cc1)C1CCN(C(=S)Nc2ccccc2Cl)CC1 | inactive | – |
| CCC(C)(C)C1CCc2[nH]nc(C(=O)NCCN3CCOCC3)c2C1 (centres undefined) | inconclusive [inhibitor, single point] | – |
| Cc1ccc(CN2C(=O)C(=O)c3cc(C)ccc32)cc1 | active: 0.58 µM | – |

| SMILES | Potency | activity change, negative = growth inhibition |
| --- | --- | --- |
| COc1ccc(-n2c(O)c(/C=N/NS(=O)(=O)c3cccc([N+](=O)[O-])c3)c3ccccc3c2=O)cc1OC | active: 23.1 µM | – |
| C/C(=N\NC(=O)c1c(C)nc2ccccn12)c1ccc(O)cc1O | active: 3.66 µM | – |
| Cc1noc(C)c1C(=O)N1CCC(C(=O)c2ccccc2)CC1 | inactive | – |
| CCCCn1nnnc1C(c1ccccc1)N1CCN(Cc2c(F)cccc2Cl)CC1 (centres undefined) | inconclusive [inhibitor, single point] | – |
| CCCc1nnc(NC(=O)CCS(=O)(=O)Cc2ccccc2)s1 | inconclusive [inhibitor, single point] | – |
| NC(Cc1ccc(C(F)(F)F)cc1)c1csc(NC(=O)NCCc2ccccc2)n1 (centres undefined) | active: 11.6 µM | – |
| CCOc1ccc(-c2nc(CSCC(=O)NCCc3ccccc3)c(C)o2)cc1 | inconclusive [inhibitor, single point] | – |
| Cc1ccc(C(=O)NCC(=O)NCCc2ccc(S(N)(=O)=O)cc2)s1 | inactive | – |
| Oc1c(Br)cc(Br)cc1/C=N/c1nc2c(s1)CCCC2 | inconclusive [inhibitor, single point] | – |
| COc1ccccc1CNC(=O)CNCCc1ccc(OC)c(OC)c1 | inconclusive [inhibitor, single point] | – |
| Cc1ccc2oc(C(=O)NCC(c3ccco3)N(C)C)c(C)c2c1 (centres undefined) | inconclusive [inhibitor, single point] | – |
| CC1Cc2nc(SCC(=O)N3CCCc4ccccc43)n(C)c(=O)c2S1 (centres undefined) | inconclusive [inhibitor, single point] | – |
| CCN1CCN(c2cc(C)c3cc(NC(=O)c4cc(OC)c(OC)c(OC)c4)ccc3n2)CC1 | inconclusive [inhibitor, single point] | – |
| CN(CCOc1ccc(Cl)cc1)CC(=O)Nc1ccc(OC(F)F)cc1 | inconclusive [inhibitor, single point] | – |
| NC(=O)c1ccccc1OCC(=O)N1CCc2ccccc2C1 | inconclusive [inhibitor, partial curve, poor fit] | – |
| COc1ccc(CCNC(=O)c2oc3ccccc3c2C)cc1 | inconclusive [inhibitor, single point] | – |
| COc1cc(Br)cc(C=Nc2cccc(C(F)(F)F)c2)c1O | inconclusive [inhibitor, single point] | – |
| C=C(C)CSc1nc2ccccc2c(=O)n1-c1c(C)n(C)n(-c2ccccc2)c1=O | inconclusive [inhibitor, single point] | – |
| CN1C(=O)S/C(=C/c2cccn2-c2cccc(C(=O)O)c2)C1=O | inactive | – |
| CN(Cc1ccccc1)c1nc2c(c(=O)[nH]c(=O)n2C)n1Cc1ccccc1F | inconclusive [inhibitor, single point] | – |
| COc1ccc(CCC(=O)NCCCNC(=O)CCc2ccc(OC)cc2)cc1 | inconclusive [inhibitor, partial curve] | – |
| CC(C)(C)C(=O)CSc1n[nH]c(-c2ccccc2)n1 | inactive | – |
| COc1cccc(CNC(=O)CCCn2c(=O)c3cccn3c3ccc(F)cc32)c1OC | active: 11.6 µM | – |
